In PubChem BioAssay AID886 (National Center for Advancing Translational Sciences (NCATS), 2007):
Hit rate of the full screen: of about 73,000 compounds, about 2,500 (3.4%) were called active. The inconclusive results got no clear call from the source; some entries with a clear call stand among them for comparison. The call rests on the fitted dose curve; in most records, active means well fitted inhibition curve with a large enough effect; inconclusive means small, poorly fitted or top-dose-only effect; inactive means no such curve, though single readings can be large or run the other way. Potencies of inconclusive entries are doubtful fits and often do not repeat.

target: 3-hydroxyacyl-CoA dehydrogenase type-2 (Homo sapiens) (UniProt Q99714); experiment: qHTS Assay for Inhibitors of HADH2 (Hydroxyacyl-Coenzyme A Dehydrogenase, Type II); settings: recombinant HADH2, NADH fluorescence, beta-hydroxybutyryl-CoA; activity change, negative = inhibition: at 57.1 µM (top of the series); further: nearly all actives have a fitted effect of over 60% in size
Sequence of UniProt Q99714 (Q99714 whole entry, looked up): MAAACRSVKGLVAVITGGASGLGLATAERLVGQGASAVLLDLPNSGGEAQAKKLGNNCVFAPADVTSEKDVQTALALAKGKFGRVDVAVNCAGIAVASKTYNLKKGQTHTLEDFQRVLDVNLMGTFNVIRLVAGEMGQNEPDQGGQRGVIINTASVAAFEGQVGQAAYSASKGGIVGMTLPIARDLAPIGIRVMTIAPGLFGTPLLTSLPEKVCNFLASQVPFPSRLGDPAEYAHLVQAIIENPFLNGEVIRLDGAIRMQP
Sequence of UniProt Q99714 (Q99714 whole entry, looked up): as above
How it was run: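 His-tagged recombinant enzyme from E. coli, 20 nM, preincubated 15 min RT with compound; reaction started with 1 mM NAD+ and 90 uM beta-hydroxybutyryl-CoA in 100 mM Tris-HCl pH 9.0. NADH fluorescence (ex 360/em 450) read over 4 min; last-minus-first difference.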
On the % scale 0 is the no-effect control and ±100 the full control effect; potency means the concentration at half of the fitted maximal effect; tags describe the fitted curve by direction and shape.

| Structure (SMILES) | activity change, negative = inhibition | Potency |
| --- | --- | --- |
| CN(C)CCCCCCN(C)C | inactive: 5.29% | – |
| COc1ccc(C2(C(=O)NCCCN(C)C)CCOCC2)cc1 | inactive: 6.58% | – |
| Cn1c(C(=O)NCCN2CCCCCC2)cc2c(=O)n(C)c3ccccc3c21 | – | inconclusive: 25.1 µM [inhibitor, single point] |
| Cc1cc(O)c(C(C)C)cc1NS(=O)(=O)c1ccccc1 | – | active: 25.1 µM |
| NC(=Nc1ccccc1)NC(=O)c1nc(Cl)c(N)nc1N | – | inconclusive: 15.8 µM [inhibitor, partial curve] |
| CC(C)C[C@H](NC(=O)N1CCCCCC1)C(=O)N[C@H](Cc1cn(C)c2ccccc12)C(=O)N[C@H](Cc1ccccn1)C(=O)O | – | inconclusive: 39.8 µM [inhibitor, single point] |
| COCCN(CCOC)c1cc(C)c(C#N)c2nc3ccccc3n12 | – | inconclusive: 39.8 µM [inhibitor, single point] |
| COC(=O)C1=CNC=C(C(=O)OC)C1c1ccc(Cl)cc1 | – | active: 15.8 µM |
| CCC(C(=O)N1CCN(S(C)(=O)=O)CC1)c1ccccc1 (stereo not drawn) | inactive: 4.86% | – |
| O=C1C(=O)N(CCOCCO)C(c2ccccn2)/C1=C(\O)c1ccccc1 (stereo not drawn) | inactive: -18.7% | – |
| CC1CCC/C(=C\Nc2ccc(O)cc2)C1=O (stereo not drawn) | – | active: 25.1 µM |
| O=C1CCCC2=C1C(c1ccco1)Nc1ccc3ccccc3c12 (stereo not drawn) | – | active: 31.6 µM |
| Cc1ccc(C)c(S(=O)(=O)c2c(N)n(/N=C/c3ccco3)c3nc4ccccc4nc23)c1 | – | inconclusive: 31.6 µM [inhibitor, single point] |
| O=S(=O)(c1ccccc1)N1CCC2(CC1)CN(c1ncccn1)C2 | inactive: 5.77% | – |
| COc1ccccc1-n1c(=S)sc2c(=O)n(Cc3ccco3)c(SC)nc21 | – | inconclusive: 25.1 µM [inhibitor, partial curve] |
| Cc1cccc(N2CCN(C(=O)Cn3sc4nc(C)cc(C)c4c3=O)CC2C)c1 (stereo not drawn) | – | active: 0.126 µM |
| CCCc1cc(=O)oc2cc(C)cc(OCc3nn[nH]n3)c12 | – | active: 31.6 µM |
| CCOc1ccc(-c2nc(C#N)c(N3CCN(C)CC3)o2)cc1 | – | active: 15.8 µM |
| COC(=O)c1ccccc1NC(=O)c1noc2c1CCC2 | – | active: 15.8 µM |

| Structure (SMILES) | activity change, negative = inhibition | Potency |
| --- | --- | --- |
| O=C1C=C[C@@H](O)[C@H]2[C@@H]3C(=O)N(C[C@@H]4CCCO4)C(=O)[C@@H]3CC[C@H]12 | inactive: 8.09% [at 11.4 µM] | – |
| O=c1[nH]c2cc(Cl)cc(Cl)c2[nH]c1=O | – | inconclusive: 39.8 µM [inhibitor, single point] |
| Nc1nc(N2CCOCC2)nc2ccccc12 | – | active: 20 µM |
| CN1CCc2cc(O)c(O)cc2[C@H](c2ccccc2)C1 | – | inconclusive: 0.794 µM [inhibitor, full curve] |
| O=C1O/C(=C\Br)CC[C@@H]1c1cccc2ccccc12 | – | inconclusive: 20 µM [inhibitor, partial curve] |
| CC1(C)CC(CC(=O)O)(c2ccccc2)CCO1 (stereo not drawn) | inactive: -0.698% | – |
| CCOC(=O)N1CCC(NC(=O)c2cccc3c2C(=O)N(c2ccc(OC)cc2)C3)CC1 | – | inconclusive: 39.8 µM [inhibitor, single point] |
| C=CCn1c(-c2ccc(OC)c(OC)c2)cs/c1=N\c1ccccn1 | – | inconclusive: 25.1 µM [inhibitor, partial curve] |
| CC(C)OC(=O)CC(=O)c1sc2nc3c(cc2c1N)CN(C)CC3 | – | inconclusive: 20 µM [inhibitor, single point] |
| O=C(CCCCCn1c(=S)[nH]c2cc3c(cc2c1=O)OCO3)N1CCN(C2CCCCC2)CC1 | inactive: -1.61% | – |
| CCCc1ccc(-c2ccc(F)c(N)c2)nc1 | – | inconclusive: 39.8 µM [inhibitor, single point] |
| COc1ccc(C(=O)CSc2nnc(COc3ccccc3)n2Cc2ccco2)cc1 | – | inconclusive: 25.1 µM [inhibitor, single point] |
| CC(=O)c1ccc(NC(=O)c2ccc(S(=O)(=O)N3CCCC3)cc2)cc1 | inactive: 9.41% | – |
| c1ccc(-c2cc3c(N4CCOCC4)ncnc3s2)cc1 | – | inconclusive: 39.8 µM [inhibitor, single point] |
| COc1ccc(Cl)cc1NC(=O)c1oc(C)nc1C | – | inconclusive: 31.6 µM [inhibitor, partial curve] |
| Cc1ccc(C)c(CSc2nnc(-c3ccccn3)n2N)c1 | inactive: 6.06% | – |
| Cc1noc(C)c1COC(=O)c1cc(C)n(-c2ccccc2)c1C | inactive: -0.237% | – |
| Cc1c(NC(=O)Oc2ccccc2)sc(=S)n1C | – | inconclusive: 3.98 µM [inhibitor, partial curve] |
| COc1ccccc1NC(=O)CCC(=O)Nc1nnc(C(F)(F)F)s1 | – | inconclusive: 6.31 µM [inhibitor, single point] |
